The values below come from ChEMBL document CHEMBL4888484, “Replenishing the malaria drug discovery pipeline: Screening and hit evaluation of the MMV Hit Generation Library 1 (HGL1) against asexual blood stage Plasmodium falciparum ,using a nano luciferase reporter read-out” (2022).

About 540 (0.36%) of roughly 150,000 compounds showed an effect of 50% or more. The list shows a part of the results.

For this assay, the system named is Plasmodium falciparum. The assay is described as follows: Primary screen in NF54 nanoGlo assay, in single point, at 2uM, 72h; a lower Z score goes with more inhibition. The format is functional, Erythrocyte. To be noted: timepoint 72 hour.
On to `CCc1ccc(NC(=O)Cn2cc(-c3nnc(C)o3)ccc2=O)cc1`, for which the % Inhibition (usually the relative decrease from the control value, in per cent) is -1% and the Z score turned out to be 0.12.

Regarding `CCCCn1ccnc1-c1cccc(NC(=O)Cc2cccnc2)c1`, the “% Inhibition” value is -8% and the Z score came out at 1.25.

With `O=C(Nc1cccs1)N1CCC(c2nnc(-c3ccsc3)o2)CC1`, the “% Inhibition” value is -18% and the Z score is given as 2.08.

Take `Cc1cc(C(=O)NCC2C3Cc4ccccc4C23)cnn1` (stereo unspecified): the “% Inhibition” value was -2% and the Z score is recorded as 0.19.

With `COc1cc(N(C)Cc2nc(-c3ccccn3)no2)ncn1`, the “% Inhibition” value was -14% and the Z score came out at 1.32.

Take `Cc1nc(N[C@H]2CCCn3ncnc32)nc(C)c1CC(C)C`: the “% Inhibition” value is listed as -11% and the Z score turned out to be 1.66.

In the case of `O=C(Nc1cc(O)cc(C(=O)O)c1)OC1CCCC1`, the “% Inhibition” value is -2% and the Z score is 0.27.

Turning to `CNC(=O)[C@H]1CCCN(C(=O)c2ccc3cncn3c2C)C1`, the “% Inhibition” value is -12% and the Z score worked out at 1.07.

`CCc1ccc(Cn2ncnc2[C@H]2CCOC2)cc1`: the “% Inhibition” value was found to be 0% and the Z score is reported as 0.

In the case of `Cc1cc(N(C)CC(=O)Nc2cccc(Cl)c2)ncn1`, the “% Inhibition” value turned out to be 5% and the Z score is on record as -0.55.

In the case of `C[C@]1(O)CCC12CCN(C(=O)Cc1cccc(Cl)c1)CC2`, the “% Inhibition” value is recorded as 0% and the Z score is -0.03.

As to `O=C(Cn1cc(-c2ccc(F)cc2)cn1)NCc1cn(-c2ccncc2)nn1`, the “% Inhibition” value is reported as 8% and the Z score was -1.03.

With `O=C(NCc1ccc(Cl)cc1)c1cnco1`, the “% Inhibition” value was 3% and the Z score is on record as -0.56.

Take `Cn1ccc(C2CCN(CC(=O)Nc3cnccn3)CC2)n1`: the “% Inhibition” value is reported as 12% and the Z score is -1.37.

For the compound `Cc1cccc(N2CCC(NC3CCN(Cc4ccco4)CC3)CC2)c1C`, the “% Inhibition” value was -15% and the Z score was 1.45.

With `C[C@@H](CCNS(=O)(=O)c1c(Cl)cc(F)cc1Br)CC(=O)O`, the “% Inhibition” value is listed as 32% and the Z score is -1.75.

Take `CC(C)(C)OC(=O)NCc1cccc(NC(=O)NCc2ccoc2)c1`: the “% Inhibition” value is given as 1% and the Z score is -0.21.

Turning to `CC[C@](C)(Nc1ccc2c(c1)OCCO2)c1nnnn1-c1ccc(OC)cc1`, the “% Inhibition” value is listed as -8% and the Z score came to 1.18.

Take `O=S(=O)(c1cccc(F)c1F)N1CCC[C@H]1c1ccccn1`: the “% Inhibition” value is 4% and the Z score was -0.68.

`O=C(CN1C(=O)CCC1=O)N1CC(c2nc(-c3cccc(Cl)c3)no2)C1`: the “% Inhibition” value is listed as -9% and the Z score is reported as 1.71.

For `O=C(NCC1CCN(c2cnsn2)CC1)c1ccccc1`, the “% Inhibition” value is given as -13% and the Z score worked out at 1.42.

Consider `COCCn1c(Cc2c[nH]c3ccccc23)nnc1N1CCC[C@@H](CN2CCOCC2)C1`, for which the “% Inhibition” value turned out to be 10% and the Z score is -1.87.

Regarding `CCN1CCCN(C(=O)[C@@H]2CC(C(C)C)=NO2)CC1`, the “% Inhibition” value was -11% and the Z score worked out at 1.38.

`CC(C)(O)CCc1ccc(C(=O)N2CCC(c3nnn[nH]3)CC2)cc1`: the “% Inhibition” value is given as -4% and the Z score was found to be 0.58.

`CN(C(=O)c1cc(Cl)cc(F)c1N)c1cnn(C)c1`: the “% Inhibition” value is -3% and the Z score turned out to be 0.4.

`Clc1ccc2nc3c(c(Nc4ccc(Oc5ccccc5)cc4)c2c1)CCCC3`: the “% Inhibition” value is -2% and the Z score turned out to be 0.31.

Turning to `O=C(CCc1cc2n(n1)CCNC2)NCc1scnc1-c1ccccc1`, the “% Inhibition” value is -13% and the Z score was determined as 1.69.

For `Brc1cncc(N2CCC3(CC2)OCCO3)c1`, the “% Inhibition” value is given as -1% and the Z score was 0.22.

For `Cc1cccc2nnc(N3CCN(C(=O)c4ccco4)CC3)n12`, the “% Inhibition” value turned out to be 28% and the Z score is reported as -3.14.

On to `Cn1cnc2cc(-c3noc(-c4cccc(F)c4)n3)ccc21`, for which the “% Inhibition” value is given as -9% and the Z score was determined as 1.4.

In the case of `O=C(C1=CCCCC1)N1CCC(C(=O)N2CCCCCC2)CC1`, the “% Inhibition” value is recorded as -16% and the Z score is 1.91.

With `CCOc1ccc(C(=O)Nc2ccccc2-c2csc(C)n2)nn1`, the “% Inhibition” value was -11% and the Z score was 2.09.

On to `COc1ccc(Nc2nonc2-c2noc(NCc3ccc(OC)c(OC)c3)n2)cc1`, for which the “% Inhibition” value is -18% and the Z score is reported as 2.26.

As for `Cn1cc(CC(=O)N(CC(=O)Nc2ccc(F)cc2)C(C)(C)C)cn1`, the “% Inhibition” value is -9% and the Z score came out at 1.28.

For `O=C(O)C[C@@](O)(c1nccn1Cc1ccccc1)C(F)(F)F`, the “% Inhibition” value came to 4% and the Z score was -0.57.

On to `CCN1CCn2cc(C(=O)NCCN3CCN(c4ccccc4F)CC3)nc2C1=O`, for which the “% Inhibition” value is 10% and the Z score is given as -1.32.

`C=C(C)CN(CC)C(=O)Cc1cccc(F)c1`: the “% Inhibition” value was -16% and the Z score stood at 1.72.

Regarding `CC(C)C(=O)N(Cc1nccn1Cc1ccc(Cl)cc1Cl)C1CCCCC1`, the “% Inhibition” value is 1% and the Z score is -0.1.

Regarding `Cc1cccc(NC(=O)Cn2nc(C(=O)N3CCOCC3)c3ccccc32)c1C`, the “% Inhibition” value is given as 0% and the Z score is listed as 0.

For `COC1CCCN(C(=O)CC2(c3ccc(-c4ccccc4)cc3)CC(=O)N(C3CC3)C2=O)C1` (stereo unspecified), the “% Inhibition” value is on record as -5% and the Z score is 0.67.

`Cc1ccc(Cn2c(=O)c(C(=O)NCC3CC3)nn(-c3ccc(C(F)(F)F)cc3)c2=O)cc1`: the “% Inhibition” value was -8% and the Z score stood at 0.8.

For the compound `O=S(=O)(Cc1cccc(C(F)(F)F)c1)Nc1cnccn1`, the “% Inhibition” value was determined as 13% and the Z score is listed as -1.51.

`Cc1cnc(N2CCn3nc(CNc4cnccn4)cc3C2)nc1N(C)C`: the “% Inhibition” value is -13% and the Z score worked out at 1.32.
